Article PMC4336329 (PLoS ONE, 2015)
The campaign covered roughly 310,000 compounds. About 14,000 (4.5%) showed an effect of 50% or more. The effect is printed as a negative number. This is one part of the list.

Each compound was assayed against human ether-à-go-go-related gene (hERG) potassium channel (human, UniProt Q12809) (assay: primary screen, population patch clamp on CHO cells stably expressing hERG).
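Note: peak tail current of the secondary pulse compared with the same well before compound.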

Chain of human ether-à-go-go-related gene (hERG) potassium channel (Q12809 whole entry, looked up): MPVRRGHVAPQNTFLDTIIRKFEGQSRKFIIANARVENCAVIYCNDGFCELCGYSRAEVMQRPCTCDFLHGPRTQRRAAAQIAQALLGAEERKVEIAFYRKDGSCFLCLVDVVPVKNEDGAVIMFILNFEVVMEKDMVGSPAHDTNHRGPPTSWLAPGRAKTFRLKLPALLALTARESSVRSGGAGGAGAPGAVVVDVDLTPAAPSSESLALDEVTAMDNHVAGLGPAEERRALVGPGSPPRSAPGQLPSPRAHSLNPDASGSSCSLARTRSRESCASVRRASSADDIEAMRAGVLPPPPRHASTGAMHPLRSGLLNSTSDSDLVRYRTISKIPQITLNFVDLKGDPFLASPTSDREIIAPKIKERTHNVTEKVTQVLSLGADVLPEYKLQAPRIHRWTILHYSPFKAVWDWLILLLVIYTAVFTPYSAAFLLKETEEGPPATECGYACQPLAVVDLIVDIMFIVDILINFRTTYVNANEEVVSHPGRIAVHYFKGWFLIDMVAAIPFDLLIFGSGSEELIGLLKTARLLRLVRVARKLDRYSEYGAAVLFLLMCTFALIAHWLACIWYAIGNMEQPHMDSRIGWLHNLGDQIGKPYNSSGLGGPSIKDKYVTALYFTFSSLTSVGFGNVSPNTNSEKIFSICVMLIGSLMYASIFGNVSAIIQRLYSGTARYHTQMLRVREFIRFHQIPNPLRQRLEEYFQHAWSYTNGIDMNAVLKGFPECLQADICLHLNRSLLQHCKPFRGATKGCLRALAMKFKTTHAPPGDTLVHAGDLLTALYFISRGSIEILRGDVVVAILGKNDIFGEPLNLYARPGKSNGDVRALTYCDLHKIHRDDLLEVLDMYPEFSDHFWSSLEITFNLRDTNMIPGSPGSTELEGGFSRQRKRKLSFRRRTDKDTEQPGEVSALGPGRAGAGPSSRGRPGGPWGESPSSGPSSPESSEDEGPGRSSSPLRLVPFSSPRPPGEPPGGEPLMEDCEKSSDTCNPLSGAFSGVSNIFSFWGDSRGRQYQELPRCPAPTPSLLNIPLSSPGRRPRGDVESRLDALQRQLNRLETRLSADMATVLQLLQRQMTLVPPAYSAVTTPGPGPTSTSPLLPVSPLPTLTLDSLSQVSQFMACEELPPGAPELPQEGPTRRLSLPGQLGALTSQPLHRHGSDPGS

Row | SMILES | hERG current change (%, negative = inhibition) at 10uM
1 | O=C(NCC1CCCO1)c1cccc(S(=O)(=O)Nc2ccc(SC(F)F)cc2)c1 (stereo not drawn) | -5.67%
2 | CSCCC(NS(=O)(=O)c1ccccc1)C(=O)OC(C)C(=O)Nc1ccc(Cl)cn1 (stereo not drawn) | -58.8%
3 | CCCn1nc(C(=O)Nc2nnc(CC)s2)c2ccccc2c1=O | -0.743%
4 | O=C(CC1C(=O)NCCN1Cc1ccccc1)NCCN1CCCCC1=O (stereo not drawn) | 19.1%
5 | COCCNC(=O)CN(C(=O)Cn1nnc2ccccc21)c1cccc(C)c1C | 11.9%
6 | Cc1ccccc1NC(=O)c1cc(S(=O)(=O)c2ccccc2)ccc1Cl | 9.51%
7 | Cc1cc2cc(CNC(=O)c3cccs3)ccc2[nH]1 | 7.46%
8 | CCC(=O)Nc1cccc(C2=NOC3(C2)C[C@@H](C(N)=O)N(C(=O)CC(c2ccccc2)c2ccccc2)C3)c1 (stereo partly drawn) | -3.63%
9 | Cc1cc(Cl)ccc1OCC(=O)OCC(=O)Nc1cccnc1Cl | -0.711%
10 | CCC(C)[C@H](NC(=O)N1CC(=O)Nc2ccccc21)C(=O)N1CCC(C(=O)O)CC1 (stereo partly drawn) | 11.3%
11 | Cc1c(C(=O)NC(c2ccccn2)C(F)(F)F)oc2c(F)cccc12 (stereo not drawn) | 20%
12 | O=C(NNC(=S)Nc1ccccc1Cl)c1ccccc1 | 5.93%
13 | COc1ccc(NC(=O)c2ccc3c(c2)OCO3)cc1[N+](=O)[O-] | 25.5%
14 | CCC(C)C(=O)Nc1cccc(SC)c1 (stereo not drawn) | 16%
15 | CN(C)c1ccc(CNn2cnnc2SCc2ccccc2F)cc1 | -17.6%
16 | O=C(NC1CCCCC1)C1CC(=O)N(Cc2ccccc2)C1 (stereo not drawn) | 16.7%
17 | COc1ccc(C(=O)Nc2ccc(NC(=O)c3ccccc3F)cn2)cc1 | 13.9%
18 | Cc1ccc(C(=O)c2cc([N+](=O)[O-])ccc2N2CCCCC2)cc1 | -5.08%
19 | COc1ccc(-c2noc(CN(C(=O)c3c(-c4ccccc4Cl)noc3C)C(C)C)n2)cc1 | 14.8%
20 | CC1(C)Cc2c(cnn2-c2ccccc2)-c2c1c1ccccc1n2CC(O)CCl (stereo not drawn) | 9.96%
21 | Cc1cc(C(=O)Nc2ccccc2C(F)(F)F)no1 | 17.8%
22 | CC(=O)NC(CCS(C)(=O)=O)C(=O)N1CCc2ccccc21 (stereo not drawn) | -0.0527%

Row | SMILES | hERG current change (%, negative = inhibition) at 10uM
23 | CCN(CC(=O)NCc1ccc(F)cc1)C(=O)c1ccc(Cl)cc1 | -23.7%
24 | O=C(c1nc2ccccn2c1CNCC1OCCc2ccccc21)N1CCOCC1 (stereo not drawn) | -0.852%
25 | O=C(O)c1ccc2oc(=O)c(S(=O)(=O)c3ccc(F)cc3)cc2c1 | 21.7%
26 | CCCCOc1ccc(C2C(C(=O)c3cccs3)=C(O)C(=O)N2CCN2CCOCC2)cc1 (stereo not drawn) | 21.8%
27 | Cc1c(NC(=O)CSc2ccc3c(c2)OCCO3)c(=O)n(-c2ccccc2)n1C | -10.3%
28 | COc1cc(/C=C(\C#N)C(=O)NCC2CCCO2)ccc1OCC(N)=O (stereo not drawn) | 28.7%
29 | O=C(NNC(=O)c1ccc2c(=O)n3c(nc2c1)CCC3)c1ccc(Cl)cc1 | -13.3%
30 | N#CCCN1CCN(S(=O)(=O)c2ccc(S(=O)(=O)NCC3CCCO3)cc2)CC1 (stereo not drawn) | 3.48%
31 | Cc1cccc2cc(C3CC(c4cccs4)=NN3S(C)(=O)=O)c(Cl)nc12 (stereo not drawn) | -0.435%
32 | O=C(Cn1cc(C(=O)c2cccs2)c2ccccc21)NCc1ccc2c(c1)OCO2 | -1.56%
33 | O=S(=O)(c1ccccc1)N1CCN=C1SCc1cccnc1 | -12.1%
34 | COc1cc2c(cc1OC)CN(C(=O)Nc1ccccc1Cl)CC2 | 9.9%
35 | O=C(O)COCC(=O)Nc1ccccc1-c1ccccc1 | 12.7%
36 | CC1=C(C(=O)O)N2C(=O)[C@@H](NC(=O)CCCC(=O)O)[C@H]2SC1 | 1.03%
37 | Cc1cc(Cl)ccc1Nc1ncccc1C(N)=O | -0.7%
38 | CCN1CCN(Cc2ccc(OCc3ccccc3)cc2)CC1 | -31.2%
39 | Cc1ccc(S(=O)(=O)N2CCOCC2)cc1NC(=O)COC(=O)c1cc(=O)[nH]c2ccccc12 | 10.2%
40 | Cc1cc(C)c(-c2csc(NC(=O)C3=COCCO3)n2)cc1C | 2.49%
41 | O=C(c1ccccc1F)N1CCN(CC2CC3C=CC2C3)CC1 (stereo not drawn) | -16.4%
42 | CN(C)CCNc1oc(COc2ccc(-c3ccccc3)cc2)nc1C#N | -28%
43 | Cc1ccccc1NC(=O)NCCCN1CCN(C)CC1 | 28.1%
44 | COC(=O)c1ccc(C(=O)N2CCCC(CNC(=O)c3ccc(F)cc3)C2)cc1 (stereo not drawn) | -5.82%

Row | SMILES | hERG current change (%, negative = inhibition) at 10uM
45 | C=CCn1c(OCc2ccccc2)n[nH]c1=S | 23.8%
46 | COc1ccc(C2C3=C(CC(C)(C)CC3=O)Oc3ncn4nc(-c5cccnc5)nc4c32)cc1 (stereo not drawn) | -2.59%
47 | CCOCC(=O)Nc1ccc([N+](=O)[O-])cc1Cl | -8.53%
48 | N#Cc1ccncc1S(=O)c1ccc(Cl)cc1 (stereo not drawn) | 11.6%
49 | Cc1ccc(-c2nn(-c3ccccc3)cc2/C=C/C(=O)OCC(=O)NC2CC2)o1 | 10.2%
50 | CCOC(=O)N1CCC(NC(=O)CCN2C(=O)C3C4C=CC(C4)C3C2=O)CC1 (stereo not drawn) | 5.1%
51 | [O-]/[N+](=C/c1cccnc1)c1ccc(Br)cc1 | 0.388%
52 | O=C(Cc1ccccc1)NCC(=O)N1CCCCC1 | 31.7%
53 | Cc1cccc(-c2cccc(NC(=O)C3CCCN(C(=O)c4cccnc4)C3)c2)c1 (stereo not drawn) | -47.4%
54 | Cc1cc(/C=C(/C#N)c2cccc(F)c2)c(C)n1-c1cccnc1 | -20.3%
55 | Cc1ccccc1OCC(=O)NCCCNC(=O)c1cccnc1 | 1.33%
56 | CCC1(C)Cc2ccccc2-c2nc(NN)[nH]c(=O)c21 (stereo not drawn) | 6.44%
57 | CCOC(=O)C1CCN(C(=O)c2cc3ccccc3oc2=O)CC1 | 7.58%
58 | CC(C)n1c(SCC(=O)Nc2nc3ccccc3s2)nc2c1c(=O)n(C)c(=O)n2C | 26.8%
59 | C=CCNCCOc1ccc(C)cc1[N+](=O)[O-].O=C(O)C(=O)O | -21.7%
60 | COc1cccc(CNC(=O)c2nnn(CC(=O)Nc3ccc(Br)cc3)c2N)c1 | 17.5%
61 | COc1ccc(CCNC(=O)C2CCC(=O)N2S(=O)(=O)c2ccc(C)cc2)cc1 (stereo not drawn) | -3.24%
62 | CN1CCN(c2ccc(NC(=O)c3ccc4c(c3)OCO4)cc2)CC1 | -38.3%
63 | CC(C)COC(=O)Nc1ccc(C(=O)O)cc1 | 11%
64 | CN(CC(=O)Nc1cccc2c1CCCC2)S(=O)(=O)c1ccc(Cl)cc1 | 3.71%
65 | O=C(Cn1cnc2sc3c(c2c1=O)CCCC3)NCCCC(=O)N1CCC2(CC1)OCCO2 | -10.5%
66 | O=C(CSc1nc2ccccc2c(=O)[nH]1)N1CCOCC1 | -1.11%

Row | SMILES | hERG current change (%, negative = inhibition) at 10uM
67 | COc1cc(/C=C/C(=O)OCC(=O)NC(=O)NC(C)C)ccc1O | 4.09%
68 | CCOC(=O)c1c(NC2=NS(=O)(=O)c3ccccc32)sc2c1CCC(C)C2 (stereo not drawn) | 16.1%
69 | CCc1ccc(NC(=O)C(=O)N/N=C(\C)CC(=O)Nc2ccc(OC)cc2)cc1 | -6.2%
70 | Cc1cccc(/C=N\NC(=O)c2ccc(Cl)cc2)c1O | 37.5%
71 | O=[N+]([O-])c1nn(-c2ccc3c(c2)OCCO3)n(O)c1=NCc1ccc(F)cc1 | -23.3%
72 | Cc1ccc(Cn2ccc(-c3cnc(-c4ccccc4)s3)n2)cc1 | 21.2%
73 | O=C(O)c1ccc(NS(=O)(=O)/C=C/c2ccccc2)cc1 | 15%
74 | Cc1ccccc1C(=O)N1CCC(C(=O)OCc2nc(N)nc(Nc3ccccc3)n2)CC1 | -33.6%
75 | Cc1ccc(NC(=O)C(NC2CCCC2)c2ccccc2)cc1Cl (stereo not drawn) | -6.03%
76 | COc1ccc(NS(=O)(=O)c2cc(NC(=O)c3cccs3)ccc2N2CCCC2)cc1 | -0.683%
77 | CCN(CC)S(=O)(=O)c1ccc(C(=O)Nc2ccc(C(F)(F)F)n(C)c2=O)cc1 | 25.4%
78 | O=C(COC(=O)c1cncc(Br)c1)Nc1nc(-c2ccc(F)cc2)cs1 | 1.26%
79 | CCc1ccc2[nH]c3nc(SCc4nnc(-c5ccc(C)cc5)o4)nnc3c2c1 | 8.91%
80 | CC(=O)Nc1cccc(C(=O)Nc2ccc(S(=O)(=O)NC3=NCCCCC3)cc2)c1 | 17%
81 | Cc1ccc(NNC(=O)c2cc(C)on2)c(C)c1 | 4.13%
82 | CC1=CC(=O)C2=C(C)C[C@H](O)[C@@H]3[C@H](OC(=O)[C@H]3C)[C@@H]12.O | 11%
83 | Nc1ccccc1SCc1cn2ccccc2n1 | -47.3%
84 | CC1=C(C#N)C(C(F)(F)F)(C(F)(F)F)N=C(c2ccco2)N1 | 4.05%
85 | COc1ccc(-c2nc(-c3ccccc3)nc(Cl)c2C#N)cc1 | 8.56%
86 | CC1(C)CC(=O)C2=C(C1)Oc1ncn(Cc3ccco3)c(=N)c1C2c1ccccc1 (stereo not drawn) | -60.8%
87 | CC(C)n1c(NCc2ccc(Cl)cc2)nc2ccccc21 | -1.78%
